Test results from PubChem BioAssay (NCATS).
The inconclusive results got no clear call from the source; some entries with a clear call stand among them for comparison. Potencies of inconclusive entries are left out as doubtful fits. Active and inactive are the calls of the source. The call rests on the fitted dose curve; in most records, active means well fitted curve in the direction sought with a large enough effect; inconclusive means small, poorly fitted or top-dose-only effect, or another doubt; inactive means no such curve, though single readings can be large; an effect the other way counts as inactive or inconclusive.

Tested on: Zika virus NS2B-NS3 protease (linked construct)
Experiment: Primary screen NINDS Rhodamine qHTS for Zika virus inhibitors (AID 1347160); further: nearly all actives have a fitted effect of over 55% in size
Settings: purified NS2B-NS3 protease, Rhodamine110 substrate fluorescence; series mostly up to 57.1 µM
Procedure, shortened: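 Each compound, titrated, sat 15 min with 25 nM linked protease before 1.5 microM Rhodamine110 substrate went in. Fluorescence gain over the next 15 min, in pH 8.0 Tris with Tween 20, gave Hill-fitted curves.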
Potency means the concentration at half of the fitted maximal effect; tags describe the fitted curve by direction and shape.

Question: For `O=P(O)(O)C(O)(Cc1cccnc1)P(=O)(O)O`, which Potency is on record?
Answer: inconclusive [inhibitor, single point]

Question: With `CC(C)CC(=O)Nc1n[nH]c2c1CN(C(=O)C1CCN(C)CC1)C2(C)C` as the molecule, how does the Potency read?
Answer: inactive

Question: With `CCCS(=O)(=O)Nc1ccc(F)c(C(=O)c2c[nH]c3ncc(-c4ccc(Cl)cc4)cc23)c1F` as the molecule, how does the Potency read?
Answer: inactive

Question: How did the Potency turn out when `CN(c1nccc(=O)[nH]1)C1CCN(c2nc3ccccc3n2Cc2ccc(F)cc2)CC1` was run?
Answer: inactive

Question: With `CN(C)c1nc(Cc2ccc(NC(=O)c3ccc4ccccc4c3)cc2)nc(Cl)c1CC(=O)O` as the molecule, how does the Potency read?
Answer: inconclusive [inhibitor, partial curve, poor fit]

Question: With `CCOc1ccccc1OCCNC(C)Cc1ccc(OC)c(S(N)(=O)=O)c1` (configuration not stated) as the molecule, how does the Potency read?
Answer: inactive

Question: `O=C(O)CCc1ccc(NCc2cccc(Oc3ccccc3)c2)cc1` was tested. Which Potency did it give?
Answer: inconclusive [inhibitor, single point]

Question: With `Clc1ccc(C2(c3ccc(-c4cn[nH]c4)cc3)CCNCC2)cc1` as the molecule, how does the Potency read?
Answer: inactive

Question: Which Potency does the source give for `COc1cc(-c2nn(C3CCC(N4CCN(C(C)=O)CC4)CC3)c3ncnc(N)c23)ccc1NC(=O)c1cc2ccccc2n1C` (configuration not stated) here?
Answer: inactive

Question: For `Cc1ccc2c(c1)c1c(n2CCc2ccc(C)nc2)CCN(C)C1`, which Potency is on record?
Answer: inactive

Question: How did the Potency turn out when `COc1ccc2c(OCc3nnc4ccc(-c5ccccc5)nn34)ccnc2c1` was run?
Answer: inconclusive [inhibitor, full curve, poor fit]

Question: How did the Potency turn out when `COc1cc(Nc2ncc3c(n2)-c2ccc(Cl)cc2C(c2c(F)cccc2OC)=NC3)ccc1C(=O)O` was run?
Answer: inconclusive [inhibitor, partial curve]

Question: With `Cn1cc(-c2ccc3ncc(Cc4ccc5ncccc5c4)n3n2)cn1` as the molecule, how does the Potency read?
Answer: inactive

Question: Which Potency does the source give for `C[C@@H](N)c1ccc(C(=O)Nc2ccnc3[nH]ccc23)cc1` here?
Answer: inactive

Question: For `c1nc2nc(Nc3ccc(N4CCOCC4)cc3)nc(NC3CCCCC3)c2[nH]1`, which Potency is on record?
Answer: inactive

Question: Which Potency does the source give for `COc1cccc2nc(-c3cccs3)nc(NN3C(=O)C=C(C)C3=O)c12` here?
Answer: inactive

Question: Which Potency does the source give for `O=C(NOC[C@H](O)CO)c1ccc(F)c(F)c1Nc1ccc(I)cc1F` here?
Answer: inconclusive [inhibitor, single point]

Biological target: Lysine-specific demethylase 5B (Homo sapiens) (UniProt Q9UGL1)
Experiment: Optimization screen for KDM5B Histone Demethylases FDH coupled qHTS against the LOPAC library (AID 1347166)
Settings: KDM5B demethylation, FDH-coupled NADH fluorescence (FDH is formaldehyde dehydrogenase); series mostly up to 57.5 µM
Procedure, shortened: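 KDM5BDeltaAP (200nM final) in 50mM HEPES pH 7.5, 0.01% Tween-20 was preincubated with compound for 10 min at room temperature. A substrate mix of 12.5uM H3K4Me3, 25uM a-ketoglutarate, ascorbate, Fe2+, NAD+ and formaldehyde dehydrogenase was then added. NADH fluorescence (340/450 nm) was read initially and after 30 min.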

Sequence of UniProt Q9UGL1 (Q9UGL1 whole entry, looked up): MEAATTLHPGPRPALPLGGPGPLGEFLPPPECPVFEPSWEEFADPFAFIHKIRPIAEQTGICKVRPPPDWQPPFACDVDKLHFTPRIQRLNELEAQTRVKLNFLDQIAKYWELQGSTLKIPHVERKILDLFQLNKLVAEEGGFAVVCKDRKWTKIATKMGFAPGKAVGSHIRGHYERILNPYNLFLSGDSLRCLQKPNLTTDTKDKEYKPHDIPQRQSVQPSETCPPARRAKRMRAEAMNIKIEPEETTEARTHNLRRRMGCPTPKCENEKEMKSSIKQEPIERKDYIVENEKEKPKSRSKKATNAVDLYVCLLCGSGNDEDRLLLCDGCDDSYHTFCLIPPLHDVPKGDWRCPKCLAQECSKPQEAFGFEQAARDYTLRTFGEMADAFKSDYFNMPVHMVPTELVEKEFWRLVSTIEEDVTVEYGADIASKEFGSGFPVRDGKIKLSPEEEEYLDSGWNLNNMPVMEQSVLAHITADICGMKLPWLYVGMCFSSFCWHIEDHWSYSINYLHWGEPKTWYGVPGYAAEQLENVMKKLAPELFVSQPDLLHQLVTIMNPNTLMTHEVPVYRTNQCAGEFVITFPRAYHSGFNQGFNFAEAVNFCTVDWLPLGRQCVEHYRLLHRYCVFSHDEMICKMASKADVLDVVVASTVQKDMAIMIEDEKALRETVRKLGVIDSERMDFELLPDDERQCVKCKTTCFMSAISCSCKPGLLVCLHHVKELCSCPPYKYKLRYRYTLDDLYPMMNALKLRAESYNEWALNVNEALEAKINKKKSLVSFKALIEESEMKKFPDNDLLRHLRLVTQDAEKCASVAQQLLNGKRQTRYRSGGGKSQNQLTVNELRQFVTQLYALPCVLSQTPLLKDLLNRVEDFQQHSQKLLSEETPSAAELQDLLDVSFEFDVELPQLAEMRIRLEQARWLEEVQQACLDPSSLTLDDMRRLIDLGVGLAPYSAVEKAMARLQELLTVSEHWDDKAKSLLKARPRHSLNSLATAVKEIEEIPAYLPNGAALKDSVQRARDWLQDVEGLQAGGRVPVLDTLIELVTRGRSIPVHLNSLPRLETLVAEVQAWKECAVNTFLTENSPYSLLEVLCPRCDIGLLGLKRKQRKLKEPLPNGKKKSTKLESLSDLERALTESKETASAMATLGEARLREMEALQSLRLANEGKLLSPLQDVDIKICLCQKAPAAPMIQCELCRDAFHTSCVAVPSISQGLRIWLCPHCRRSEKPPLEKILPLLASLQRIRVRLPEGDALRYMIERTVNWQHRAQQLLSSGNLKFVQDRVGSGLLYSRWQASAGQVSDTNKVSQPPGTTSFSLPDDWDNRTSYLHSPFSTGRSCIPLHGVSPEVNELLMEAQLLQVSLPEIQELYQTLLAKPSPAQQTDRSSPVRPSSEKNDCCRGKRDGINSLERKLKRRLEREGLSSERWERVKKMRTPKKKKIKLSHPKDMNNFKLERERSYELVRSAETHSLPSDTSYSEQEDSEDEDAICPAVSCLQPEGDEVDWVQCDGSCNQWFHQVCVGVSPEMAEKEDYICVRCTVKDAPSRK

Question: How did the Potency turn out when `CC(C)(Oc1ccc(C2CC2(Cl)Cl)cc1)C(=O)O` (configuration not stated) was run?
Answer: inactive

Question: How did the Potency turn out when `CCOC(=O)C(C)Oc1cccc2c(=O)n(CC(=O)Nc3ccc4c(c3)OCCO4)ccc12` (configuration not stated) was run?
Answer: inconclusive [inhibitor, partial curve, poor fit]

Question: Which Potency does the source give for `Cc1cc(C(C)(C)C)cc(C)c1CC1=NCCN1` here?
Answer: inactive

Question: `NC(=O)c1cnccn1` was tested. Which Potency did it give?
Answer: inactive

Question: With `C1COC(NC(C2CC2)C2CC2)=N1` as the molecule, how does the Potency read?
Answer: inactive
